# From PubChem BioAssay AID1508642 (National Center for Advancing Translational Sciences (NCATS), 2021)
# About 200 (0.47%) of roughly 43,000 compounds were called active. Not shown: some 12% with an inconclusive outcome. Calls come from the whole dose curve; as a rule, active = well fitted cell-killing curve with a large enough effect; inconclusive = small, poorly fitted or top-dose-only effect, or effect the other way; inactive = flat fitted curve, though single readings scatter. The list shows a part of the results.
# Experiment: Cell viability qHTS assay in S16 Pmp22-F2sN cells; note: nearly all actives have a fitted effect of over 65% in size
# Conditions: S16 Pmp22-F2sN Schwann cells viability, CellTiter-Glo, 24 h; series mostly up to 57.5 µM; activity change, negative = cytotoxicity: at the top concentration
# Method in brief: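 Viability was measured by CellTiter-Glo luminescence (15 min, room temperature). This followed 24 h at 37 °C of compound exposure (23 nL pin transfer) in S16 Pmp22-F2sN Schwann cells, 500-1,000 per well.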
# % is set by controls: 0 for no effect and ±100 for the full control effect.
row,SMILES,"activity change, negative = cytotoxicity"
1,COc1ccc(-n2cc3c(c2-c2cccc(Br)c2)c(=O)n(C)c(=O)n3C)cc1OC,inactive: 7.32%
2,COc1cccc(NC(=O)Cn2c(=O)n(Cc3ccccc3)c(=O)c3c4c(sc32)CN(C(C)=O)CC4)c1,inactive: -7.04%
3,COC(=O)c1ccccc1NC(=O)c1nc(SCc2ccccc2C)ncc1Cl,inactive: -3.65%
4,Cc1cc(C)cc(C(=O)Nc2ccc(-c3cn4cccnc4n3)cc2)c1,inactive: -7.23%
5,O=C(O)c1cccc(NC(=O)c2cccc(S(=O)(=O)Nc3cccc(C(=O)O)c3)c2)c1,inactive: -4.74%
6,CCn1c(=O)c2cc(C(=O)N(C)c3cc(C)ccc3C)sc2c2ccccc21,inactive: 4.54%
7,O=C(CCSCc1ccccc1F)N1CCN(c2ccc(F)cc2)CC1,inactive: 5.21%
8,CCOc1ccccc1NC(=O)Cn1c(=O)n(Cc2ccc(C(=O)NCCCOC)cc2)c(=O)c2ccccc21,inactive: -13.8%
9,COc1cc(OC)c(NC(=O)c2oc3ccc4c(c3c2C)C(=O)CC(C)(C)O4)cc1Cl,inactive: 3.75%
10,COc1ccc(NC(=O)c2ccc3snnc3c2)cc1OC,inactive: 8.72%
11,CN(C)C(=O)c1ccc(S(=O)(=O)NCc2ccccc2Cl)s1,inactive: 8.98%
12,COc1cc(OC)cc(-n2c(=O)[nH]c3cc(C(=O)NCCc4ccc(C)cc4)ccc3c2=O)c1,inactive: -4.23%
13,CCN(C(=O)c1sc2nc3n(c(=O)c2c1C)CCCCC3)c1ccccc1F,inactive: -21.1%
14,Cc1ccc(NC(=O)Nc2nnc(N3CCCCC3)s2)c(C)c1,inactive: -5.1%
15,CCc1ccc(CNC(=O)c2cc3c(=O)oc4ccc(C)cc4c3s2)cc1,inactive: 0.471%
16,COCCCNC(=O)Cn1c(=O)n(CCCC(=O)NCc2ccc(C)cc2)c(=O)c2ccccc21,inactive: -5.15%
17,CCCC(=O)N(c1ccc2oc(-c3ccccc3)c(C(=O)OCC)c2c1)S(=O)(=O)c1ccc(C)cc1,inactive: -7.49%
18,O=C(NCC(c1ccc2c(c1)OCO2)N1CCOCC1)c1ccc(F)cc1 (stereo unspecified),inactive: 1.28%
19,CCCCN1CC(c2nc3ccccc3n2CCCCOc2c(C)cccc2C)CC1=O (stereo unspecified),inactive: -2.2%
20,CC1=C(c2ccc(C)c(C)c2)S(=O)(=O)N=C1N1CCN(c2cccc(C(F)(F)F)c2)CC1,inactive: 17.9%
21,Cc1ccc(NC(=O)Cn2c(=O)n(-c3ccc(CC(=O)NCC4CCCO4)cc3)c(=O)c3ccccc32)cc1 (stereo unspecified),inactive: 18.8%
22,CCOc1ccc(-n2c(=O)c3c4c(sc3n(Cc3cccc(Cl)c3)c2=O)CCCC4)cc1,inactive: 6.06%
23,COc1ccc(-c2nn(-c3ccccc3)cc2C(=O)Nc2ccccc2OC)cc1,inactive: 27.8%
24,CCn1cc(C(=O)N2CCN(c3ccccc3OC)CC2)c(=O)c2cc(S(=O)(=O)N3CCCCC3)ccc21,inactive: -6.5%
25,Cc1cccc(C(=O)Nc2ccccc2-c2nc(-c3ccccc3)no2)c1,inactive: 1.31%
26,CCOc1ccc(Sc2cc(C(=O)NCCc3ccc(OC)c(OC)c3)c3ccccc3n2)cc1,inactive: 13.3%
